Results taken from publication PMC4336329 (PLoS ONE, 2015).
The whole screen tested about 310,000 compounds, of which about 14,000 (4.5%) showed an effect of 50% or more. Effects have a minus sign here. The list shows a part of the results.

What follows are molecules tested against human ether-à-go-go-related gene (hERG) potassium channel (human, UniProt Q12809) (assay: primary screen, population patch clamp on CHO cells stably expressing hERG).
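Also: peak tail current of the secondary pulse compared with the same well before compound.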

Sequence of human ether-à-go-go-related gene (hERG) potassium channel (Q12809 whole entry, looked up): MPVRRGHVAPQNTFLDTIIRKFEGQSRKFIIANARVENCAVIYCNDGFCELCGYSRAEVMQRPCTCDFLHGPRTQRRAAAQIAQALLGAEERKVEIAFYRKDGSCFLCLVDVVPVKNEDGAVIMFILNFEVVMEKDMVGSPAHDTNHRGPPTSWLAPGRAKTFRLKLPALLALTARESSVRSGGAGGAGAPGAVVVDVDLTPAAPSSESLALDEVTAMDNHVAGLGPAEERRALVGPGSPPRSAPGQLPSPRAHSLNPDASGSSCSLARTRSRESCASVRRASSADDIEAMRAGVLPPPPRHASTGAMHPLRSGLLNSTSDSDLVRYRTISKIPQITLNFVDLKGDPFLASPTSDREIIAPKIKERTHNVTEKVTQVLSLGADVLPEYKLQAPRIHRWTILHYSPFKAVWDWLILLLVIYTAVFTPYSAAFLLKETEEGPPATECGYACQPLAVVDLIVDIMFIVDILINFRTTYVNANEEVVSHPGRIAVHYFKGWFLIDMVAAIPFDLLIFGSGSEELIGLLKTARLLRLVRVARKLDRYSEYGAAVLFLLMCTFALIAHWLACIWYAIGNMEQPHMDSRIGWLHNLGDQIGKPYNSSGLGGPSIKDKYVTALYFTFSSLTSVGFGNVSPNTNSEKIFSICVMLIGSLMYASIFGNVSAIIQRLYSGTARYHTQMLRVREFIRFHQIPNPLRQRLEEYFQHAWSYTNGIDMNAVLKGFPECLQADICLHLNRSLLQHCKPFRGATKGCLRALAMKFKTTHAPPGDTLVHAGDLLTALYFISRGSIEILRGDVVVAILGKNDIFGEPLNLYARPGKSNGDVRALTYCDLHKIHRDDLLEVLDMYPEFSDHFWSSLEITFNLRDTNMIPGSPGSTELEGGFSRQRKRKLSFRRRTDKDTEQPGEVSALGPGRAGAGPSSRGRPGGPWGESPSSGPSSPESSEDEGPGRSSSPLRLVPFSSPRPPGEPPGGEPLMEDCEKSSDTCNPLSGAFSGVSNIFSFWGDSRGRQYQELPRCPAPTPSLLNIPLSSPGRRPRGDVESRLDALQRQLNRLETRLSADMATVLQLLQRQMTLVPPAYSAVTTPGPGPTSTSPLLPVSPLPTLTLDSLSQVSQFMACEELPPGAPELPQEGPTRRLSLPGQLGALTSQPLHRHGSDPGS

Row | Structure (SMILES) | hERG current change (%, negative = inhibition) at 10uM [%]
1 | CC(=O)c1ccc(N2CCN(C(=S)Nc3ccccc3)CC2)cc1 | -1.51
2 | CC(C)(C)c1ccc(NC(=O)COC(=O)c2ccc3ncsc3c2)cc1 | 5.01
3 | CC(C)c1c(C(=O)N/N=C/c2ccc(-c3ccccc3)cc2)nnn1-c1nonc1N | 26.6
4 | C/C=C/c1ccc(OCCCCOc2ccc(OC)cc2)c(OC)c1 | -7.09
5 | COc1cccc(CNC(=O)c2ccccc2NC(=O)C2=C(C)OCCS2)c1 | -0.591
6 | Cc1oc2ccc(NS(=O)(=O)c3ccc(C(C)(C)C)cc3)cc2c1C(=O)Nc1ccccc1 | 1.72
7 | CCC(=O)c1ccc(N2CCN(S(=O)(=O)c3ccccc3)CC2)c(F)c1 | 11.7
8 | COCc1c(C(=O)N2CCN(c3ccc(C(F)(F)F)cn3)CC2)oc2ccccc12 | -23.7
9 | CCSc1ccccc1C(=O)Nc1nc2ccccc2c(=O)[nH]1 | 17.7
10 | N#Cc1ccc(NC(=O)c2cc(-c3cccs3)on2)cc1 | 21.8
11 | Cc1nn(-c2ccc(Cl)cc2)c2sc(C(=O)N3CCN(c4ccccn4)CC3)cc12 | 17.2
12 | O=C(CCc1nnc(Cc2c[nH]c3ccccc23)o1)NC(C1CC1)C1CC1 | 13.5
13 | NC(=O)CS(=O)(=O)c1nc2ccccc2n1Cc1ccccn1 | 12.1
14 | C=CC[n+]1c(-c2ccc(OCC)cc2)csc1NNC(=O)Nc1ccccc1.[Br-] | 9.29
15 | CC(=O)N1CCc2cc(S(=O)(=O)NCCCOC(C)C)ccc21 | 13.2
16 | CC(=O)c1cn(CC(=O)NCc2ccc3c(c2)OCO3)c2ccccc12 | -3.61
17 | CC1Sc2ccc(S(=O)(=O)CCC(=O)NC(C)c3ccccc3)cc2NC1=O (stereo not shown) | 10.9
18 | CCC(C(=O)NCc1ccco1)N(C(=O)CNS(=O)(=O)c1ccccc1)c1ccc(OC)cc1 (stereo not shown) | -7.78
19 | CC(=O)Nc1ccc(-c2csc(NC(=O)C3=COCCO3)n2)cc1 | -13.3
20 | Fc1ccc(COc2ccccc2-c2ccnc3ncnn23)cc1 | -6.51
21 | COc1ccc(-c2noc(CNC(=O)CCN3C(=O)[C@H]4CC=CC[C@H]4C3=O)n2)cc1 | 5.29
22 | Cl.O=C(NCCCN1CCOCC1)c1cccnc1 | 8.8

Row | Structure (SMILES) | hERG current change (%, negative = inhibition) at 10uM [%]
23 | COc1ccc(N2CCN(C(CNC(=O)COc3ccccc3)c3ccco3)CC2)cc1 (stereo not shown) | -67
24 | CCC(=O)Nc1nc2ccccc2n1Cc1ccc(C)cc1 | 14
25 | CCC(C(=O)OC)n1cnc2scc(-c3ccc(C)cc3)c2c1=O (stereo not shown) | 4.69
26 | O=S(=O)(NCC1CCCO1)c1ccc(Cl)c(C(F)(F)F)c1 (stereo not shown) | -10.1
27 | O=C(Cc1n[nH]c(=O)c2ccccc12)Nc1ccc(-c2nnc3n2CCCCC3)cc1 | -4.77
28 | COc1ccc(S(N)(=O)=O)cc1C(=O)OCCCOC(=O)c1cc(S(N)(=O)=O)ccc1OC | 4.29
29 | CCCC(=O)NCc1nc2ccccc2n1C | -2.04
30 | COc1ccc(/C=N/c2sc3c(c2C#N)CCN(Cc2ccccc2)C3)c(O)c1 | 10.2
31 | COc1ccc(Cl)cc1C(=O)NNC(=O)c1cccc([N+](=O)[O-])c1 | 2.28
32 | NC(=O)C1CCN(CC(=O)Nc2ccccc2Sc2ccc(Cl)cc2)CC1 | -53.7
33 | CC(C)(CNS(=O)(=O)c1ccc(F)cc1)CNS(=O)(=O)c1ccc(F)cc1 | 2.69
34 | COc1ccccc1N(CC(O)Cn1ccnc1C)S(=O)(=O)c1ccccc1 (stereo not shown) | 10.1
35 | CCc1ccc2[nH]c(=O)c(CN(Cc3ccccc3OC)C(=O)Nc3ccccc3OC)cc2c1 | 3.47
36 | COC(=O)c1oc2c(c1C)C1(CCC2)SCCS1 | -20
37 | COc1ccc(N(C(=O)CNC(=O)c2ccco2)C(C(=O)NCC2CCCO2)c2ccccc2)cc1 (stereo not shown) | 16
38 | COc1ccc(OCc2nc(C#N)c(NCCCn3ccnc3)o2)cc1 | -43.4
39 | CN1CCN(C(=O)COc2ccc(C(C)(C)C)cc2Br)CC1 | -27.8
40 | O=C(O)CSc1c2c(nc3cc(C(=O)N4CCOCC4)ccc13)CCCC2 | 6.31
41 | O=C(Nc1ccc(Cl)cc1)N1CC=CCC1 | 12.3
42 | O=[N+]([O-])C(/C=C(\Cl)[N+](=O)[O-])=C1N(Cc2ccc(Cl)nc2)CCN1Cc1ccc(Cl)nc1 | -13
43 | Cc1ccc(-n2nc(C)c3c2OC(N)=C(C#N)C3c2ccc(C)o2)cc1 (stereo not shown) | 6.4
